Assay results published in patent publication EP4682164A1 (Curogen Technology Co., Ltd., dated 2026).

Legend:
[1] = molecular target: T1, wild-type IL-17RA (wtIL-17RA) (human, UniProt Q96F46 33-320, limits assumed); experiment: binding affinity analysis of Table 12 (Octet BLI as described in Example 5)
T1 construct: also called IL-17RA wild type

[2] = molecular target: T2, wild-type IL-17RC (wtIL-17RC) (human, UniProt Q8NAC3 21-538, limits assumed); experiment: as above
T2 construct: also called IL-17RC wild type
T2 sequence (looked up): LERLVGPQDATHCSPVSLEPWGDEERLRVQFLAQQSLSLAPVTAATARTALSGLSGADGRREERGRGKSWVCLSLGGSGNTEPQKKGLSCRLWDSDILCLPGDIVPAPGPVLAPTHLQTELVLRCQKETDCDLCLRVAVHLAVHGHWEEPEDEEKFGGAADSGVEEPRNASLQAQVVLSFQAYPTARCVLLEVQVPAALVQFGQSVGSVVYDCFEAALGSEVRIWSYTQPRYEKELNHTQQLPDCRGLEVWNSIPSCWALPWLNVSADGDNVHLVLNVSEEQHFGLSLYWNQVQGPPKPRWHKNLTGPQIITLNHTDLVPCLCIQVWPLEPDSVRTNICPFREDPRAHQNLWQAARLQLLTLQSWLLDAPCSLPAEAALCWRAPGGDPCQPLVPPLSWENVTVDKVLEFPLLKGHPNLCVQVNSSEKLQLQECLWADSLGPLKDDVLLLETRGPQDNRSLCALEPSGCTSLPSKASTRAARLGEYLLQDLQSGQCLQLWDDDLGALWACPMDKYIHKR

Kd [1]: 0.7 nM
Kd [2]: 0.4 nM
B1: human IL-17A (IL-17AA homodimer) (ligand)
chain: not shown
notes: also called hIL-17A; hIL-17AA
